This is one part of the list. This is a noisy data set.

Holding throughout (experiment): mutation enrichment score (mutant vs wild-type peptide binding to bait); baits are purified protein domains named by gene / domain / UniProt id / residues; peptides come from disordered regions of human proteins; higher = mutation enhances binding relative to wild type
The target of experiment [1] is EPS8_SH3_1_Q12929_534_598 (clone: EPS8L1_SH3_1_Q12929_534_598). The conditions noted are these: number of wild-type / mutant comparisons summed (bounds the score): 12; paper call: no_effect; wild-type window: ….
In the next experiment the target is T1, EPS15_EH__P42566_121_215.
T1 chain: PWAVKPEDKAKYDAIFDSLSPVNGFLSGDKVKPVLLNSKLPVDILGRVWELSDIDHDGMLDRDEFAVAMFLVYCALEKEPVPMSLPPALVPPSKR
The conditions noted are these: wild-type window: ….

The target of the next experiment is T2, SHC_PH__P29353_149_317.
T2 chain: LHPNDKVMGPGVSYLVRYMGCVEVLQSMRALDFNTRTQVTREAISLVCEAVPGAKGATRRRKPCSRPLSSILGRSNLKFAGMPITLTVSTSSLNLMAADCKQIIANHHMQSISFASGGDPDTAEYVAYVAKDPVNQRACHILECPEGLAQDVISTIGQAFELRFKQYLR
As to conditions: number of wild-type / mutant comparisons summed (bounds the score): 6; paper call: no_effect; wild-type window: ….

For experiment [2], the target named is T3, EPHB2_Pkinase__P29323_604_898.
T3 chain: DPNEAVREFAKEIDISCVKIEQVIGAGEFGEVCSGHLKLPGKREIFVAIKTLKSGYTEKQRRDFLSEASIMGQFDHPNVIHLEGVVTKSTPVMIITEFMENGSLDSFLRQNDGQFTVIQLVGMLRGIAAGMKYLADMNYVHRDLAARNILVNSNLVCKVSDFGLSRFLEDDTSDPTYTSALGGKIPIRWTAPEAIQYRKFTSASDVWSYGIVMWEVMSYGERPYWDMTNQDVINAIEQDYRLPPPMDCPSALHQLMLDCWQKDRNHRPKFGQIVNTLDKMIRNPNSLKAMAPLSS
The conditions noted are these: paper call: no_effect, wild-type window: ….

The target in experiment [3] is T4, PEX14_Pex14__O75381_16_84.
T4 chain: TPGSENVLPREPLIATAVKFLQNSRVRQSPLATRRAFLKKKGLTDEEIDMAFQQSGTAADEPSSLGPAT
The conditions noted are these: number of wild-type / mutant comparisons summed (bounds the score): 6; paper call: no_effect; wild-type window: ….

The target of experiment [4] is PDCD6IP_Bro__Q8WUM4_1_359. The conditions noted are these: number of wild-type / mutant comparisons summed (bounds the score): 5; paper call: no_effect; wild-type window: ….
Another experiment concerns the target EZR_FERM_1_P15311_2_295. As to conditions: number of wild-type / mutant comparisons summed (bounds the score): 5; paper call: no_effect; wild-type window: ….
The next experiment deals with T5, MSN_FERM_1_P26038_1_322.
T5 chain: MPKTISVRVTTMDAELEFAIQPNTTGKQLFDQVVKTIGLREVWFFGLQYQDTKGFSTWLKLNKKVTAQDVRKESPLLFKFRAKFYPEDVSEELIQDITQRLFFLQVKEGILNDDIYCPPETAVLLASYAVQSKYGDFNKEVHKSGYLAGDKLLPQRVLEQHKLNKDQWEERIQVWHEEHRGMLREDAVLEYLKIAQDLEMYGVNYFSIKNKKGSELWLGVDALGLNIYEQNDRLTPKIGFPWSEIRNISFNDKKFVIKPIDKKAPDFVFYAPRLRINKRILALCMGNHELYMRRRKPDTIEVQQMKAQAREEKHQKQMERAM
As to conditions: number of wild-type / mutant comparisons summed (bounds the score): 6; paper call: enhanced; wild-type window: ….

Another experiment addresses T6, RDX_FERM_1_P35241_5_295.
T6 chain: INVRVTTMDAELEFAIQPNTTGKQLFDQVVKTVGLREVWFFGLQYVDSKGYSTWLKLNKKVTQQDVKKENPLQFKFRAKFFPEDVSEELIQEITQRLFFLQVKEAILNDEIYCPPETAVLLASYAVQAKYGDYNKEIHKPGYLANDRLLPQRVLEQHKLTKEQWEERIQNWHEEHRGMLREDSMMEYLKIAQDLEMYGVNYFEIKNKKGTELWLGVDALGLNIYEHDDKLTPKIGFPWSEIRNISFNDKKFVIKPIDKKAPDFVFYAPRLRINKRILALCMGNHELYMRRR
The conditions noted are these: number of wild-type / mutant comparisons summed (bounds the score): 6; paper call: enhanced; wild-type window: ….

Experiment [5] deals with T7, EPHA3_Pkinase__P29320_606_947.
T7 chain: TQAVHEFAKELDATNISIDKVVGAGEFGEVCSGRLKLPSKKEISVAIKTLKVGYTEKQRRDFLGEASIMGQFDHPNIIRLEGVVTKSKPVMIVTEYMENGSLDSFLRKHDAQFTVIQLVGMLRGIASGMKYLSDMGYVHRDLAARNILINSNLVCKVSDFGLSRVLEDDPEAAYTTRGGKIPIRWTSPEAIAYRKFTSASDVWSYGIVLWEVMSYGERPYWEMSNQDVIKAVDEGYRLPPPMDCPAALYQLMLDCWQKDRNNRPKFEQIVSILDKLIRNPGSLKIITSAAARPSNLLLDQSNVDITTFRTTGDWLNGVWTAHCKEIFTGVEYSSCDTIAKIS
As to conditions: number of wild-type / mutant comparisons summed (bounds the score): 6; paper call: no_effect; wild-type window: ….

Another experiment addresses KPNA4_Arm__O00629_68_487. As to conditions: number of wild-type / mutant comparisons summed (bounds the score): 9; paper call: no_effect; wild-type window: ….
The mark [6] stands for this setting: number of wild-type / mutant comparisons summed (bounds the score): 6, paper call: no_effect.
[7] abbreviates: number of wild-type / mutant comparisons summed (bounds the score): 6.
[8] abbreviates: number of wild-type / mutant comparisons summed (bounds the score): 12, paper call: no_effect.

Chain of KPNA4_Arm__O00629_68_487 (chain, as listed by the source): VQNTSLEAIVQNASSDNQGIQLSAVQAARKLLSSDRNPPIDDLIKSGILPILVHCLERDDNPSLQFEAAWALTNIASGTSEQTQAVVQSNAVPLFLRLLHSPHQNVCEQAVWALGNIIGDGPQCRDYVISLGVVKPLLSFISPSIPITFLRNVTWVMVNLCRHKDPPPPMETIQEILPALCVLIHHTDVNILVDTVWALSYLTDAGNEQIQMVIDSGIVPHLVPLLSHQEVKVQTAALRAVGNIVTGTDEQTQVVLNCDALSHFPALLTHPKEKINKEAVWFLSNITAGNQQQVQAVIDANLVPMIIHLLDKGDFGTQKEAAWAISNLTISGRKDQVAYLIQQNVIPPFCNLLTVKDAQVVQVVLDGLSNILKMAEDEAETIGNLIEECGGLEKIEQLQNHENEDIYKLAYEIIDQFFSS
Chain of EZR_FERM_1_P15311_2_295 (chain, as listed by the source): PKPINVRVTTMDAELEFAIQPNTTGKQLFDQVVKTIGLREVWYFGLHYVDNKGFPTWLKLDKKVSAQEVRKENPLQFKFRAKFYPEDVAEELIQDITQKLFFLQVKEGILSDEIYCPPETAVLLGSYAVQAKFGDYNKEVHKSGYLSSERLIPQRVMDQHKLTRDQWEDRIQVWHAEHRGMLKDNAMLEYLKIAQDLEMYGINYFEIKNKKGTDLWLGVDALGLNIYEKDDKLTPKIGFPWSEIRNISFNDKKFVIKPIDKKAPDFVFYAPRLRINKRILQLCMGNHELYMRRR

For the molecule ALEQGSPPDISPYEVPPLADNPAVAHLHHHLPAQLALPHPP [D76N D76N], the mutation enrichment score in experiment [1] came out at 0.
As to SKGFFSYRADIFVQNLVPDWWGPDGTFFGMFSIFFPSATGI [R334W R334W], the mutation enrichment score with EPS15_EH__P42566_121_215 (setting [6]) and with SHC_PH__P29353_149_317 was 6 in each case.
With LVGTLIPPSEDKASKGFFSYWADIFVQNLVPDWRGPDGTFF [R321W R321W], the mutation enrichment score in experiment [2] (number of wild-type / mutant comparisons summed (bounds the score): 12) and in experiment [3] was 2 each time.
TYADALWWGLITLTTIGYGDRYPQTWNGRLLAATFTLIGVS [K283R K283R]: the results for the mutation enrichment score in experiment [2] (setting [7]) and in [4] were -1 and 1, respectively.
As to EKGENDHFDTYADALWWGLIMLTTIGYGDKYPQTWNGRLLA [T274M T274M], the mutation enrichment score in experiment [2] (setting [7]) is -1.
With AGGAGGGGGGGSRAPPEELSVFQLPTLNFSPEQVASVCETL [M79V M79V], the mutation enrichment score in the experiment with EZR_FERM_1_P15311_2_295 is 4; with MSN_FERM_1_P26038_1_322, 6; with RDX_FERM_1_P35241_5_295 it was 6.
Consider SAVGSSAAAPRQPGLMAQMAITAAGVAVGSAVGHTLGHAIT [T61I T61I], for which the mutation enrichment score in experiment [5] was 0; in experiment [2] (setting [7]), 0.88; in experiment [4], -1.2.
For FGGPLYYANKDFFLQSLYSLMGLDAGCMAARRKEGGSETGV [T562M T562M], the mutation enrichment score in the experiment with EPS15_EH__P42566_121_215 (setting [6]) was found to be 4.3.
Same read-out and setting: in the case of GHLEPTELLMNRAYLQSITPRGYSDSEERESMPRDGESEKE [Q1119R Q1119R] it was -3.
For INIRQGREQNKPDSSPLYIQDPFETSLNISKNVSQSQLQKF [N478D N478D], in the experiment with EPS15_EH__P42566_121_215 (number of wild-type / mutant comparisons summed (bounds the score): 12, paper call: diminished), the mutation enrichment score was -8.
Regarding QGTTPDTTPARTPTEEGTPTGEQNPFLFQEGKLFEMTRSGA [S3096G S3096G], in the experiment with EPS15_EH__P42566_121_215 (setting [8]), the mutation enrichment score is -1.3.
For the molecule MKRAKVSQALFAKVAANKSQSWLCELLRWKENPSPENRTLW [G515S G515S], the values for the mutation enrichment score (with EPS15_EH__P42566_121_215 (setting [6]); in experiment [3]) were 5 and 0.26, respectively.
Turning to LFVALQGCMDKGKELSGLGSPLKNPFGNAGLLLGEAGKQLR [A490P A490P], the mutation enrichment score with EPS15_EH__P42566_121_215 (setting [8]) came to 0.
In the case of KELSGLGSALKNPFGNAGLLPGEAGKQLRRRAGLGSGLSLS [L502P L502P], the mutation enrichment score with EPS15_EH__P42566_121_215 (setting [6]) was determined as 0.
Take EGLNQGNPFIATSGPGHLSHMPQQSPSMAPSLRHSVQQFHH [V238M V238M]: in the experiment with EPS15_EH__P42566_121_215 (setting [6]), the mutation enrichment score is -4.5.
As for DEVFWFGDFNFRLSGGRTVVNALLCQGLVVDVPALLQHDQL [D490N D490N], the mutation enrichment score in [5] and in experiment [2] (setting [7]) was -2 in each case.
Turning to DEVFWFGDFNFRLSGGRTVVYALLCQGLVVDVPALLQHDQL [D490Y D490Y], the mutation enrichment score in experiment [5] and in [2] (setting [7]) was -2 in each case.
As for LVYLAEKGENDHFDTYADALLWGLITLTTIGYGDKYPQTWN [W269L W269L], the values for the mutation enrichment score (in experiment [2] (setting [7]); in the experiment with KPNA4_Arm__O00629_68_487) were -1 and 1, respectively.
PHKGLDCYLDSLFDPVLSYGYADLEKPTAIAYRMKGGGQPG [D2403Y D2403Y]: the mutation enrichment score in the experiment with EPS15_EH__P42566_121_215 (setting [6]) amounted to 1.7.
In the case of FHVTIGHTALSLYTDCPFPKGMHWALIAYAISFIFLFLNFY [W246G W246G], in experiment [2] (setting [7]), the mutation enrichment score was -3.
As for NVDQKVIQAGMFDQKSSSHEWRAFLQAILEHEEENEEEDEV [R1213W R1213W], the mutation enrichment score with EPS15_EH__P42566_121_215 (number of wild-type / mutant comparisons summed (bounds the score): 12, paper call: enhanced) was 7.
